# Laboratory results from the supplement of paper PMC10037445.
# Whole data set: some 2,900 compounds, median “NF-kB SEAP reporter activity, fold change vs agonist alone” near 0.99, cut for the highest 2% near 2.6. Some of the results follow.
# Assays:
# RAW-Dual [1] = experiment: NF-kB SEAP reporter activity, fold change vs agonist alone; cytotoxicity flag (confluency mask): not cytotoxic; higher = enhanced NF-kB activity
# Procedure, shortened: (§1)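 After 50 nL of library stock was delivered by pin tool to RAW-Dual macrophages (50,000 cells/well, DMEM, 384-well plates), a PRR agonist was added 1 h later and the plates were kept at 37 °C, 5% CO2. Twenty hours later, IRF was read from supernatant by QuantiLuc luminescence and NF-κB by QuantiBlue absorbance at 620 nm. Reporter activity is stated as fold change over agonist-alone wells. Wells with IncuCyte confluency under 70% of agonist controls in both mask sets were counted as cytotoxic.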
# RAW-Dual [2] = experiment: NF-kB SEAP reporter activity, fold change vs agonist alone; higher = enhanced NF-kB activity
# Procedure, shortened: as §1
# RAW-Dual [3] = experiment: NF-kB SEAP reporter activity, fold change vs agonist alone; cytotoxicity flag (confluency mask): cytotoxic (confluency <70% of control); higher = enhanced NF-kB activity
# Procedure, shortened: as §1
# [4] = agonist: ODN 1826 (TLR9) 0.5 ug/mL
# [5] = agonist: Pam2CSK4 (TLR2/6) 0.1 ug/mL
# [6] = agonist: Pam3CSK4 (TLR2/1) 0.1 ug/mL
# [7] = library stock concentration (final ~1000-fold dilution): 10 mM, cytotoxicity flag (confluency mask): not cytotoxic, agonist: Imiquimod (TLR7) […]
# [8] = library stock concentration (final ~1000-fold dilution): 10 mM, cytotoxicity flag (confluency mask): not cytotoxic, agonist: MPLA (TLR4) […]
# [9] = library stock concentration (final ~1000-fold dilution): 10 mM, cytotoxicity flag (confluency mask): cytotoxic (confluency <70% of control), agonist: Imiquimod (TLR7) […]
# [10] = library stock concentration (final ~1000-fold dilution): 10 mM, cytotoxicity flag (confluency mask): cytotoxic (confluency <70% of control), agonist: MPLA (TLR4) […]
# [11] = library stock concentration (final ~1000-fold dilution): 2 mM, cytotoxicity flag (confluency mask): not cytotoxic, agonist: Imiquimod (TLR7) […]
# [12] = library stock concentration (final ~1000-fold dilution): 2 mM, cytotoxicity flag (confluency mask): not cytotoxic, agonist: MPLA (TLR4) […]
smiles,measurement,setting,value
Cc1cc(C)nc(SCC(=O)Nc2ncc(Cc3cccc4ccccc34)s2)n1 (library stock concentration (final ~1000-fold dilution): 10 mM),NF-kB SEAP reporter activity,RAW-Dual [1]; agonist: LPS (TLR4) 0.1 ug/mL,0.929
same,NF-kB SEAP reporter activity,RAW-Dual [1]; [4],0.579
same,NF-kB SEAP reporter activity,RAW-Dual [1]; [5],0.859
same,NF-kB SEAP reporter activity,RAW-Dual [1]; [6],0.829
Cc1cc(C)nc(SCC(=O)Nc2ncc(Cc3cccc4ccccc34)s2)n1,NF-kB SEAP reporter activity,RAW-Dual [2]; [7],0.608
same,NF-kB SEAP reporter activity,RAW-Dual [2]; [8],0.875
C#CCC(Cc1cnc2nc(N)nc(N)c2n1)c1ccc(C(=O)NC(CCC(=O)O)C(=O)O)cc1 (stereo not drawn),NF-kB SEAP reporter activity,RAW-Dual [2]; [7],0.83
same,NF-kB SEAP reporter activity,RAW-Dual [2]; [8],0.846
C#CCC(Cc1cnc2nc(N)nc(N)c2n1)c1ccc(C(=O)NC(CCC(=O)O)C(=O)O)cc1 (stereo not drawn) (library stock concentration (final ~1000-fold dilution): 10 mM),NF-kB SEAP reporter activity,RAW-Dual [1]; agonist: LPS (TLR4) 0.1 ug/mL,0.896
same,NF-kB SEAP reporter activity,RAW-Dual [1]; [4],1.02
same,NF-kB SEAP reporter activity,RAW-Dual [1]; [5],0.698
same,NF-kB SEAP reporter activity,RAW-Dual [1]; [6],0.743
O=C(O)CCCCC1CCSS1 (stereo not drawn) (library stock concentration (final ~1000-fold dilution): 10 mM),NF-kB SEAP reporter activity,RAW-Dual [1]; agonist: LPS (TLR4) 0.1 ug/mL,0.812
same,NF-kB SEAP reporter activity,RAW-Dual [1]; [4],0.944
same,NF-kB SEAP reporter activity,RAW-Dual [1]; [5],0.625
same,NF-kB SEAP reporter activity,RAW-Dual [1]; [6],0.795
O=C(O)CCCCC1CCSS1 (stereo not drawn),NF-kB SEAP reporter activity,RAW-Dual [2]; [7],1.2
same,NF-kB SEAP reporter activity,RAW-Dual [2]; [8],1.39
COc1cc2c(Oc3ccc4[nH]c(C)cc4c3F)ccnc2cc1OCC1(N)CC1.Cl.Cl (library stock concentration (final ~1000-fold dilution): 10 mM),NF-kB SEAP reporter activity,RAW-Dual [3]; agonist: LPS (TLR4) 0.1 ug/mL,1.7
same,NF-kB SEAP reporter activity,RAW-Dual [3]; [4],0.29
same,NF-kB SEAP reporter activity,RAW-Dual [3]; [5],1.17
same,NF-kB SEAP reporter activity,RAW-Dual [3]; [6],1.74
COc1cc2c(Oc3ccc4[nH]c(C)cc4c3F)ccnc2cc1OCC1(N)CC1.Cl.Cl,NF-kB SEAP reporter activity,RAW-Dual [2]; [9],1.53
same,NF-kB SEAP reporter activity,RAW-Dual [2]; [10],1.89
C#Cc1cccc(Nc2ncnc3cc(OCCOC)c(OCCOC)cc23)c1.Cl (library stock concentration (final ~1000-fold dilution): 2 mM),NF-kB SEAP reporter activity,RAW-Dual [1]; agonist: LPS (TLR4) 0.1 ug/mL,2.26
same,NF-kB SEAP reporter activity,RAW-Dual [1]; [4],0.972
same,NF-kB SEAP reporter activity,RAW-Dual [1]; [5],0.853
same,NF-kB SEAP reporter activity,RAW-Dual [1]; [6],1.1
C#Cc1cccc(Nc2ncnc3cc(OCCOC)c(OCCOC)cc23)c1.Cl,NF-kB SEAP reporter activity,RAW-Dual [2]; [11],0.949
same,NF-kB SEAP reporter activity,RAW-Dual [2]; [12],1.39
COc1ccc(-c2cc(=O)c3c(O)cc(OC)cc3o2)cc1,NF-kB SEAP reporter activity,RAW-Dual [2]; [7],0.972
same,NF-kB SEAP reporter activity,RAW-Dual [2]; [8],1.1
COc1ccc(-c2cc(=O)c3c(O)cc(OC)cc3o2)cc1 (library stock concentration (final ~1000-fold dilution): 10 mM),NF-kB SEAP reporter activity,RAW-Dual [1]; agonist: LPS (TLR4) 0.1 ug/mL,0.876
same,NF-kB SEAP reporter activity,RAW-Dual [1]; [4],0.967
same,NF-kB SEAP reporter activity,RAW-Dual [1]; [5],0.962
same,NF-kB SEAP reporter activity,RAW-Dual [1]; [6],0.955
O=c1c2ccccc2nc2n1CCc1c-2[nH]c2ccccc12 (library stock concentration (final ~1000-fold dilution): 10 mM),NF-kB SEAP reporter activity,RAW-Dual [1]; agonist: LPS (TLR4) 0.1 ug/mL,1.5
same,NF-kB SEAP reporter activity,RAW-Dual [1]; [4],1.04
same,NF-kB SEAP reporter activity,RAW-Dual [1]; [5],0.926
same,NF-kB SEAP reporter activity,RAW-Dual [1]; [6],1.18
O=c1c2ccccc2nc2n1CCc1c-2[nH]c2ccccc12,NF-kB SEAP reporter activity,RAW-Dual [2]; [7],1.33
same,NF-kB SEAP reporter activity,RAW-Dual [2]; [8],1.19
O=C(/C=C/C=C/c1ccc2c(c1)OCO2)N1CCCCC1,NF-kB SEAP reporter activity,RAW-Dual [2]; [7],0.975
same,NF-kB SEAP reporter activity,RAW-Dual [2]; [8],1.05
O=C(/C=C/C=C/c1ccc2c(c1)OCO2)N1CCCCC1 (library stock concentration (final ~1000-fold dilution): 10 mM),NF-kB SEAP reporter activity,RAW-Dual [1]; agonist: LPS (TLR4) 0.1 ug/mL,0.958
same,NF-kB SEAP reporter activity,RAW-Dual [1]; [4],0.995
same,NF-kB SEAP reporter activity,RAW-Dual [1]; [5],1
same,NF-kB SEAP reporter activity,RAW-Dual [1]; [6],0.978
CN(C)CCCn1cc(C2=C(c3c[nH]c4ccccc34)C(=O)NC2=O)c2ccccc21,NF-kB SEAP reporter activity,RAW-Dual [2]; [9],1.13
same,NF-kB SEAP reporter activity,RAW-Dual [2]; [10],1.59
CN(C)CCCn1cc(C2=C(c3c[nH]c4ccccc34)C(=O)NC2=O)c2ccccc21 (library stock concentration (final ~1000-fold dilution): 10 mM),NF-kB SEAP reporter activity,RAW-Dual [3]; agonist: LPS (TLR4) 0.1 ug/mL,0.346
same,NF-kB SEAP reporter activity,RAW-Dual [3]; [4],0.491
same,NF-kB SEAP reporter activity,RAW-Dual [3]; [5],0.833
same,NF-kB SEAP reporter activity,RAW-Dual [3]; [6],0.564
CNC(C)C(=O)NC(C(=O)N1CCCC1c1nc(C(=O)c2ccc(F)cc2)cs1)C1CCCCC1 (stereo not drawn),NF-kB SEAP reporter activity,RAW-Dual [2]; [9],1.16
same,NF-kB SEAP reporter activity,RAW-Dual [2]; [10],0.714
CNC(C)C(=O)NC(C(=O)N1CCCC1c1nc(C(=O)c2ccc(F)cc2)cs1)C1CCCCC1 (stereo not drawn) (library stock concentration (final ~1000-fold dilution): 10 mM),NF-kB SEAP reporter activity,RAW-Dual [3]; agonist: LPS (TLR4) 0.1 ug/mL,0.436
same,NF-kB SEAP reporter activity,RAW-Dual [3]; [4],0.764
same,NF-kB SEAP reporter activity,RAW-Dual [3]; [5],0.902
same,NF-kB SEAP reporter activity,RAW-Dual [3]; [6],0.517
O=C(Nc1cccc(Nc2ncc(Br)c(NCCc3cnc[nH]3)n2)c1)N1CCCC1 (library stock concentration (final ~1000-fold dilution): 10 mM),NF-kB SEAP reporter activity,RAW-Dual [1]; agonist: LPS (TLR4) 0.1 ug/mL,0.575
same,NF-kB SEAP reporter activity,RAW-Dual [1]; [4],0.568
same,NF-kB SEAP reporter activity,RAW-Dual [1]; [5],0.268
same,NF-kB SEAP reporter activity,RAW-Dual [1]; [6],0.35
O=C(Nc1cccc(Nc2ncc(Br)c(NCCc3cnc[nH]3)n2)c1)N1CCCC1,NF-kB SEAP reporter activity,RAW-Dual [2]; [7],0.673
same,NF-kB SEAP reporter activity,RAW-Dual [2]; [8],0.889
CCCCC(=O)N(Cc1ccc(-c2ccccc2-c2nn[nH]n2)cc1)C(C(=O)O)C(C)C.CCOC(=O)C(C)CC(Cc1ccc(-c2ccccc2)cc1)NC(=O)CCC(=O)O (stereo not drawn),NF-kB SEAP reporter activity,RAW-Dual [2]; [7],1.27
same,NF-kB SEAP reporter activity,RAW-Dual [2]; [8],1.01
CCCCC(=O)N(Cc1ccc(-c2ccccc2-c2nn[nH]n2)cc1)C(C(=O)O)C(C)C.CCOC(=O)C(C)CC(Cc1ccc(-c2ccccc2)cc1)NC(=O)CCC(=O)O (stereo not drawn) (library stock concentration (final ~1000-fold dilution): 10 mM),NF-kB SEAP reporter activity,RAW-Dual [1]; agonist: LPS (TLR4) 0.1 ug/mL,1.08
same,NF-kB SEAP reporter activity,RAW-Dual [1]; [4],1.9
same,NF-kB SEAP reporter activity,RAW-Dual [1]; [5],1.23
same,NF-kB SEAP reporter activity,RAW-Dual [1]; [6],1.19
C=C(C)C1CCC2(C)CCC3(C)C(CCC4C5(C)CCC(O)C(C)(C)C5CCC43C)C12 (stereo not drawn) (library stock concentration (final ~1000-fold dilution): 2 mM),NF-kB SEAP reporter activity,RAW-Dual [1]; agonist: LPS (TLR4) 0.1 ug/mL,1.25
same,NF-kB SEAP reporter activity,RAW-Dual [1]; [4],0.949
same,NF-kB SEAP reporter activity,RAW-Dual [1]; [5],1.06
same,NF-kB SEAP reporter activity,RAW-Dual [1]; [6],0.917
C=C(C)C1CCC2(C)CCC3(C)C(CCC4C5(C)CCC(O)C(C)(C)C5CCC43C)C12 (stereo not drawn),NF-kB SEAP reporter activity,RAW-Dual [2]; [11],1
same,NF-kB SEAP reporter activity,RAW-Dual [2]; [12],1.05
